This is an account of results in ChEMBL document CHEMBL4888484, “Replenishing the malaria drug discovery pipeline: Screening and hit evaluation of the MMV Hit Generation Library 1 (HGL1) against asexual blood stage Plasmodium falciparum ,using a nano luciferase reporter read-out” (2022).

Out of some 150,000 compounds screened, about 540 (0.36%) showed an effect of 50% or more. The list shows a part of the results.

The subject of this assay is Plasmodium falciparum. As to the kind of experiment: Primary screen in NF54 nanoGlo assay, in single point, at 2uM, 72h; a lower Z score goes with more inhibition. Format: functional, Erythrocyte. The note with it: timepoint 72 hour.
What is called % Inhibition is the relative decrease from the control value, in per cent. `Cc1cnc(C(=O)N2CCC[C@@H]2Cn2ccnc2)cc1C`: the “% Inhibition” value turned out to be 7% and the Z score was -0.67.

As to `CCc1ccc(NC(=O)Cn2c(=O)cnc3cc(C(=O)NC4CCCC4)ccc32)cc1`, the “% Inhibition” value is on record as -3% and the Z score worked out at 0.34.

`CC(C)(C)NC(=O)c1ccc(F)c(F)c1`: the “% Inhibition” value was determined as 6% and the Z score is -1.01.

As to `CC[C@@H](C(=O)N1CCN(c2ccc(NC(=O)c3ccc(OC)cc3)cc2C(=O)NCc2ccc(F)cc2)CC1)c1ccccc1`, the “% Inhibition” value was -15% and the Z score is listed as 1.28.

For `Cc1cnc(=O)n(Cc2ccccc2F)c1`, the “% Inhibition” value is listed as -7% and the Z score amounted to 0.82.

In the case of `O=C(C(=O)N1CC[C@@]2(CCCN(CC3CCC3)C2=O)C1)c1ccco1`, the “% Inhibition” value is -12% and the Z score was found to be 2.23.

Regarding `C[C@@H](c1nc2ccccc2c(=O)[nH]1)N1CCC(C(=O)N2CCCCCC2)CC1`, the “% Inhibition” value was 2% and the Z score was -0.24.

Regarding `O=c1[nH]nc2n1CC[C@@H](NS(=O)(=O)c1ccc3c(c1)CCCC3)CC2`, the “% Inhibition” value is -17% and the Z score turned out to be 2.63.

On to `COc1ccc(C2(NCc3n[nH]cc3C)CCOCC2)cc1F`, for which the “% Inhibition” value was -1% and the Z score turned out to be 0.28.

As to `C[C@H](NC(=O)c1cncn1C)C(C)(F)F`, the “% Inhibition” value was -5% and the Z score amounted to 0.97.

For the molecule `O=C(CN1C(=O)CCC1=O)NC[C@@H](c1ccco1)n1cccn1`, the “% Inhibition” value was found to be 6% and the Z score was -0.87.

In the case of `Cc1nc(C(C)C)ccc1CN1C(=O)NC2(CCS(=O)(=O)CC2)C1=O`, the “% Inhibition” value is recorded as -12% and the Z score is listed as 1.27.

Consider `COc1ccc(S(=O)(=O)N2CCN(c3nc4cc(C)ccc4[nH]3)CC2)cc1`, for which the “% Inhibition” value is given as -16% and the Z score stood at 2.29.

Turning to `CCN(CCCNC(=O)Nc1cccc(F)c1)S(C)(=O)=O`, the “% Inhibition” value is reported as 5% and the Z score was -0.58.

Regarding `O=C(N[C@H]1CCc2ccccc21)c1cn[nH]c1-c1ccccc1`, the “% Inhibition” value is recorded as -6% and the Z score worked out at 0.83.

Consider `Cc1ccc(C)c(NC(=O)CN2C(=O)CCn3nc(-c4cn(C)c5ccccc45)cc32)c1`, for which the “% Inhibition” value worked out at 5% and the Z score was -0.89.

As to `CC[C@H](C)N(CC(=O)N(CCOC)Cc1cccn1Cc1ccccc1)C(=O)c1ccco1`, the “% Inhibition” value is -8% and the Z score is given as 1.33.

As for `Cc1ccc(C(=O)N2CCCn3nc(C#N)cc3C2)n1C(F)F`, the “% Inhibition” value is 4% and the Z score is recorded as -0.53.

With `COc1cccc(C(=O)N(Cc2c(C(C)C)nn(-c3ccccc3)c2Oc2cccc(F)c2)C2CC2)c1`, the “% Inhibition” value was found to be 2% and the Z score is on record as -0.18.

Take `COc1ccc(CN(Cc2ccccc2)[C@@H](C)c2ccccn2)nn1`: the “% Inhibition” value is on record as -9% and the Z score was found to be 1.45.

As to `CN1CCN([C@H]2CCN(C(=O)c3ccc4cc[nH]c4c3)C[C@H]2CCCO)CC1`, the “% Inhibition” value is reported as 4% and the Z score was -0.68.

As for `c1cc(-c2ncc(-c3ccncn3)s2)ccn1`, the “% Inhibition” value is listed as 6% and the Z score is on record as -0.91.

For the molecule `CCc1cn[nH]c1[C@H]1CCCN(c2ncc(C#N)c(N)n2)C1`, the “% Inhibition” value was found to be 13% and the Z score is -1.75.

Turning to `CC(=O)N(C)Cc1nc(C2(c3ccc(F)cc3)CCCCC2)no1`, the “% Inhibition” value is -3% and the Z score is 0.51.

As to `CCn1ncc(C(=O)N2CCCC[C@H]2c2n[nH]c(C(C)C)n2)n1`, the “% Inhibition” value was -10% and the Z score was 1.41.

For `O=C(CCNC(=O)OCC(F)(F)F)NCC1(O)CCCCCC1`, the “% Inhibition” value came out at 2% and the Z score is listed as -0.38.

For the molecule `CCOc1ccc(-n2ccn3c(C[C@@H](C)CC(=O)Nc4ccc(C)c(F)c4)nnc3c2=O)cc1`, the “% Inhibition” value is given as -10% and the Z score worked out at 1.45.

Turning to `Cn1ccnc1C(=O)N1C[C@@H]2CCC[C@@H](C2)C1`, the “% Inhibition” value was -6% and the Z score is 0.89.

Turning to `COCc1cc(N2CCN(C3CC3)C(=O)C2)nc(C(C)(C)C)n1`, the “% Inhibition” value is reported as -25% and the Z score is reported as 3.43.

For `Cc1nc(-c2cnc(-c3cccnc3)nc2C)n([C@H]2CCS(=O)(=O)C2)n1`, the “% Inhibition” value was -3% and the Z score turned out to be 0.42.

Take `CCn1cc(S(=O)(=O)NC2CN(C)CC2C)cn1` (centres undefined): the “% Inhibition” value is given as -4% and the Z score is 0.81.

On to `O=C(O)[C@H]1CCCN(C(=O)C2Cc3ccccc3C2)C1`, for which the “% Inhibition” value is 10% and the Z score is reported as -1.76.

For the molecule `C[C@H]1CN(CC(=O)N2CCNC(=O)C2)c2ccccc21`, the “% Inhibition” value is given as -4% and the Z score came to 0.5.

Consider `CC(C)n1nccc1-c1ccc(N(C)C)nc1`, for which the “% Inhibition” value is recorded as -6% and the Z score was 0.64.

With `Cc1cc(C)c(S(=O)(=O)N2CCN(C)[C@@]3(CCNC(=O)CC3)C2)c(C)c1`, the “% Inhibition” value is -13% and the Z score is recorded as 1.75.

As to `CCN(CC)C(=O)N1CCCC1CC(O)c1ccco1` (centres undefined), the “% Inhibition” value is -13% and the Z score was found to be 1.12.

As to `Cc1cc(Cl)ccc1NC(=O)CCc1c(C)nn(-c2cc(N(C)C)ncn2)c1C`, the “% Inhibition” value is listed as -15% and the Z score is 2.67.

As to `O=C(NC[C@H]1CCOC1)c1ccc(Oc2ccc(F)cc2F)cc1`, the “% Inhibition” value is listed as -5% and the Z score came out at 0.63.

As for `Cc1ccc(C)c(NC(=O)c2c3c(nc4ccccc24)C(=O)N(C2CCCCC2)C3)c1`, the “% Inhibition” value is -3% and the Z score came to 0.28.

As for `Nc1c(C(=O)N2CCCC2)nsc1C(=O)NCc1ccc(F)cc1F`, the “% Inhibition” value was -5% and the Z score came out at 1.07.

On to `CCCN1CCN(C(=O)CCc2nc3ccccc3[nH]2)[C@H]2CS(=O)(=O)C[C@H]21`, for which the “% Inhibition” value is reported as 3% and the Z score was -0.62.

Turning to `CC(C)c1nnc(C2CCN(C(=O)c3cnc4ccccc4n3)CC2)o1`, the “% Inhibition” value was determined as 10% and the Z score is -1.35.
